# According to the antibiotic and cytotoxicity screens of Wong et al. (2023):
# This is one part of the list.
# How the values were obtained:
# HSkMC = human skeletal muscle cells; test: cytotoxicity call (relative viability < 0.9); settings: 10 µM
# HepG2 = test: cytotoxicity call (relative viability < 0.9); settings: 10 µM
# S. aureus RN4220 = test: growth inhibition call (relative growth <= 0.2); settings: 50 µM
Compound,cytotoxicity call (HSkMC),cytotoxicity call (HepG2),growth inhibition call (S. aureus RN4220)
Cn1cnc(S(=O)(=O)N2C[C@@H](O)COC[C@H]3O[C@@H](CC(=O)NCc4ccc(F)cc4)CC[C@@H]32)c1,inactive,inactive,inactive
C[C@H]1CN([C@@H](C)CO)C(=O)c2cccc(NC(=O)c3nc4ccccc4s3)c2O[C@H]1CN(C)Cc1ccc(Cl)c(Cl)c1,inactive,inactive,inactive
C[C@@H]1CN([C@H](C)CO)C(=O)c2cccc(NC(=O)c3ccncc3)c2O[C@H]1CN(C)Cc1ccc(Oc2ccccc2)cc1,inactive,inactive,inactive
COCC#Cc1ccc([C@H]2[C@H]3CN(C(=O)c4ccncc4)CC(=O)N3[C@H]2CO)cc1,inactive,inactive,inactive
COc1ccc(NC(=O)Nc2cccc3c2O[C@H](CN(C)C(=O)Nc2cccc4ccccc24)[C@@H](C)CN([C@H](C)CO)C3=O)cc1,inactive,inactive,inactive
CC(=O)OC1CCC2(C)C(CCC3C2CC(=O)C2(C)C3CC3OC4(CCC(C)CO4)C(C)C32)C1 (stereo unspecified),inactive,inactive,inactive
C[C@H](CO)N1C[C@H](C)[C@H](CN(C)C(=O)C2CCCCC2)Oc2cc(-c3cncnc3)ccc2S1(=O)=O,inactive,inactive,inactive
C[C@@H]1CN([C@H](C)CO)C(=O)c2cc(NS(=O)(=O)c3cccs3)ccc2O[C@@H](C)CCCCO[C@H]1CN(C)C(=O)C1CCCCC1,inactive,inactive,inactive
COc1ccc(C(=O)Nc2ccc3c(c2)C(=O)N(C)[C@H]2CC[C@@H](CC(=O)NCC4CC4)O[C@@H]2CO3)cc1,inactive,inactive,inactive
C[C@@H]1CCCCO[C@H](CN(C)Cc2ccccc2)[C@H](C)CN([C@H](C)CO)C(=O)c2cc(NC(=O)NC3CCCCC3)ccc2O1,inactive,inactive,inactive
O=c1[nH]cc(F)c(=O)[nH]1,inactive,active,inactive
C[C@@H]1CN([C@H](C)CO)C(=O)Cc2cc(NC(=O)Nc3ccc(F)cc3)ccc2O[C@H]1CN(C)Cc1ccc(C(=O)Nc2ccccc2N)cc1,inactive,inactive,inactive
C[C@H](CO)N1C[C@H](C)[C@@H](CN(C)Cc2ccc(Cl)c(Cl)c2)Oc2ccc(NC(=O)CCCCCC(=O)Nc3ccccc3N)cc2C1=O,inactive,inactive,inactive
C[C@@H]1CN([C@@H](C)CO)C(=O)c2cc(NC(=O)c3ccncc3)ccc2O[C@H]1CN(C)S(=O)(=O)c1ccccc1,inactive,inactive,inactive
C[C@H](CO)N1C[C@H](C)[C@H](CN(C)Cc2ccccc2)Oc2ccc(NC(=O)Cn3cnnn3)cc2CC1=O,inactive,inactive,inactive
COc1ccc(NC(=O)Nc2ccc3c(c2)C(=O)N([C@@H](C)CO)C[C@H](C)[C@@H](CN(C)S(=O)(=O)c2ccc(F)cc2)OCCCC[C@@H](C)O3)cc1,inactive,inactive,inactive
CCOC(=O)CN1C(=O)c2ccccc2C1=O,inactive,inactive,inactive
N[C@H](CCC(=O)NCC(=O)O)C(=O)O,inactive,inactive,inactive
COc1ccc(C#Cc2ccc3c(c2)[C@]2(C(=O)N3)[C@H](C(=O)N3CCc4cc(OC)c(OC)cc4C3)[C@H]3C(=O)O[C@H](c4ccccc4)[C@H](c4ccccc4)N3[C@@H]2c2ccc(O)cc2)cc1,inactive,inactive,inactive
C[C@@H]1CN([C@H](C)CO)C(=O)c2cc(NS(=O)(=O)c3ccccc3)ccc2O[C@@H]1CN(C)S(C)(=O)=O,inactive,inactive,inactive
Cc1ccc(S(=O)(=O)Nc2cccc3c2O[C@@H](CN(C)C(=O)NC(C)C)[C@@H](C)CN([C@@H](C)CO)C3=O)cc1,inactive,inactive,inactive
C[C@H]1CCCCO[C@@H](CN(C)C(=O)Nc2ccc(C(F)(F)F)cc2)[C@@H](C)CN([C@@H](C)CO)C(=O)c2cc(NC(=O)Cc3ccccc3)ccc2O1,inactive,inactive,inactive
COCC(=O)N1C[C@H](C)[C@H](OC)CN(C)C(=O)c2ccc(NC(=O)c3ccc(OC)cc3)cc2OC[C@@H]1C,inactive,inactive,inactive
CN(C)CCCC[C@@H]1NC(=O)[C@@H]2C[C@H](C(=O)NCCCCCNC(=O)CS)[C@H](c3ccc(O)cc3)N2C1=O,inactive,inactive,inactive
C[C@@H]1CN([C@H](C)CO)C(=O)Cc2cc(NS(=O)(=O)c3cccs3)ccc2O[C@H]1CN(C)C(=O)Nc1cccc2ccccc12,inactive,inactive,inactive
COC(=O)Nc1nc2cc(C(=O)c3ccc(F)cc3)ccc2[nH]1,inactive,active,inactive
COc1ccc(NC(=O)N(C)C[C@@H]2Oc3c(NC(=O)c4cc(C)nn4C)cccc3C(=O)N([C@H](C)CO)C[C@@H]2C)cc1,inactive,inactive,inactive
